Reference: PubChem BioAssay AID588855 (National Center for Advancing Translational Sciences (NCATS), 2011)
Among all 410,000 compounds or so, about 5,000 (1.2%) were called active. The shares of active, inactive and inconclusive entries below differ from those in the screen. Calls follow the shape of the dose curve; as a rule, active = well fitted inhibition curve with a large enough effect; inconclusive = small, poorly fitted or top-dose-only effect; inactive = no such curve, though single readings can be large or run the other way. Potencies of inconclusive entries are doubtful fits and often do not repeat.

assay: qHTS for Inhibitors of TGF-b; settings: HepG2 CAGA-GFP TGF-b/SMAD3 reporter, GFP fluorescence, 18 h, TGF-beta stimulated, 500 pg/mL final; series mostly up to 46.1 µM; also: nearly all actives have a fitted effect of over 65% in size
Summary of the method: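 Read-out: total well GFP (ex488/em500-530) summed from mean per-cell fluorescence. Cells: HEPG2 CAGA-GFP, 1% FBS DMEM, 18 h at 37 degrees C with 500 pg/mL final TGF-beta. Unstimulated wells served as the full-inhibition control; stimulated DMSO wells = 0%.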
Potency is read from the fitted curve at half-maximal effect; tags tell the direction and shape of the fitted curve.

Compound	Potency
O=C(C[C@@H]1C/C=C\C[C@@H](Cc2ccc(F)cc2)C(=O)OCCNC1=O)N[C@H](CO)Cc1ccccc1	inactive
O=C(NNC(=O)c1sc2ccccc2c1Cl)Nc1ccc(Cl)cc1	inconclusive: 3.16 µM [inhibitor, full curve, poor fit]
CC(C)S(=O)(=O)c1oc(-c2ccc(F)cc2)nc1S(=O)(=O)c1ccccc1	active: 1.41 µM
O=C(CC1Sc2ncnn2C1=O)Nc1ccc(Cl)cc1 (configuration not stated)	inconclusive: 0.562 µM [inhibitor, full curve, poor fit]
Cc1[nH]c2ccccc2c1C(c1ccccc1)c1cccs1 (configuration not stated)	inconclusive: 31.6 µM [inhibitor, single point]
COc1ccccc1CNC(=O)c1ccccc1OCc1ccc(F)cc1	inconclusive: 35.5 µM [inhibitor, single point]
COc1ccc(C(CNC(=O)c2ccc(NS(=O)(=O)c3cccc([N+](=O)[O-])c3)cc2)N2CCOCC2)cc1 (configuration not stated)	inactive
COc1ccc(CCN2C(=O)c3[nH]nc(-c4ccccc4O)c3C2c2cccc(OC)c2)cc1 (configuration not stated)	inconclusive: 14.1 µM [inhibitor, partial curve, poor fit]
COCCn1c(SCC(=O)NCc2ccc(OC)c(OC)c2)nc2ccccc21	inactive
CCc1cc(C(=O)NNC(=S)Nc2ccccc2C)cs1	inconclusive: 35.5 µM [inhibitor, single point]
COc1ccccc1C(=O)Nc1ccc(NC(=O)C2CCCCC2)nc1	inconclusive: 6.31 µM [inhibitor, partial curve, poor fit]
C=CCNC(=O)C1CC(=O)N(c2ccc(Br)cc2)C1 (configuration not stated)	inconclusive: 11.2 µM [inhibitor, single point]
Cc1cccc(NC(=S)N2CCCC(c3nc4ccccc4[nH]3)C2)c1 (configuration not stated)	inconclusive: 35.5 µM [inhibitor, single point]
Cc1cc(=O)n(CC(=O)Nc2ccc([N+](=O)[O-])cc2)c(-n2nc(C)cc2C)n1	inactive
Cc1ccc(CCNC(=O)c2cc(Nc3ccc(C)c(C)c3)nc3ccccc23)cc1	inactive
COc1ccc(Br)cc1CN(C)C(=O)CNC(=O)c1ccc2ccccc2c1	inactive
Cc1ccc(NC(=O)CSc2c3c(nc4ccccc24)CCCC3)cc1F	inconclusive: 35.5 µM [inhibitor, single point]
O=C(COC(=O)C1(c2ccc(Cl)cc2)CCCC1)NCc1ccco1	inactive
O=S(=O)(c1cccc(C(F)(F)F)c1)c1ccc(O)cn1	inactive
CC1(c2ccccc2)NC(=O)N(CC(=O)Nc2nc(-c3ccccn3)cs2)C1=O (configuration not stated)	inconclusive: 2.51 µM [inhibitor, partial curve]
Cc1ccc(Nc2ccc([N+](=O)[O-])nc2[N+](=O)[O-])cc1	inconclusive: 35.5 µM [inhibitor, single point]
OCCC1CN(Cc2nc(-c3ccccc3)cs2)CCN1CCc1ccccc1 (configuration not stated)	inconclusive: 11.2 µM [inhibitor, partial curve, poor fit]
Cc1ccc(-c2csc(NC(=O)c3ccc(Br)cc3)c2C(=O)O)cc1	inactive

Compound	Potency
Cc1ccccc1Nc1c(-c2cccc(N(C)C)c2)nc2ccc(Br)cn12	inactive
Cc1nc(N2CCN(Cc3ccc4c(c3)OCO4)CC2)nc2c1C(=O)CC(c1ccco1)C2 (configuration not stated)	inactive
CN(Cc1ccccc1)c1ccc(-c2nc(-c3ccco3)no2)cc1[N+](=O)[O-]	inconclusive: 0.1 µM [inhibitor, full curve, poor fit]
CC(=O)c1cccc(NC(=O)c2c(-c3ccccc3)c(-c3ccccc3)nn(C)c2=O)c1	inactive
CCC(=O)c1cn([C@H](CCC(OC)OC)CC(=O)OC(C)(C)C)cc1CC	inactive
O=C(Nc1cccc(C(F)(F)F)c1)OCCN1CCN(Cc2ccccc2)CCC1=O	inconclusive: 17.8 µM [inhibitor, single point]
Cc1cccc(NC(=O)c2sc3nc4c(cc3c2N)CCCCCC4)c1C	inconclusive: 7.94 µM [inhibitor, partial curve, poor fit]
C[C@]12CCC(=O)C=C1CCC1C2CC[C@@]2(C)C1CCC21OCCO1 (some centres not stated)	inactive
OCCN1CCOCCOc2ccccc2OCCOCC1	inconclusive: 35.5 µM [inhibitor, single point]
Clc1ccc2c(N3CCCC3)ccnc2c1	inactive
O=[N+]([O-])c1ccc(Cl)c(/C=N/n2c(C3CCCCC3)n[nH]c2=S)c1	inconclusive: 3.16 µM [inhibitor, partial curve, poor fit]
Fc1cccc(Cc2c(-c3cccc(Cl)c3)nc3ccc(Br)cn23)c1	active: 14.1 µM
CC(Oc1ccc(Cl)cc1Cl)C(=O)Nc1ccc(N2CCN(C)CC2)cc1 (configuration not stated)	inactive
COc1ccc(NC(=O)CN(C)S(=O)(=O)c2ccc(Cl)cc2)cc1Cl	inconclusive: 6.31 µM [inhibitor, single point]
Nc1ccc(N2CCN(c3ncc(C(F)(F)F)cc3Cl)CC2)c(C(F)(F)F)c1	inconclusive: 35.5 µM [inhibitor, single point]
Cc1ccc2nc(-c3ccc(SCC(=O)Nc4nnc(C)s4)nc3)[nH]c2c1	active: 11.2 µM
C[C@@H]1COC(=O)[C@H](Cc2ccc(F)cc2)CC/C=C/C[C@@H](CC(=O)N[C@H](CO)Cc2ccccc2)C(=O)N1	inactive
N#Cc1cccc(Nc2c3c(nc4ccccc24)CCCC3)c1	inconclusive: 35.5 µM [inhibitor, single point]
COc1cc(C2C(C(=O)Nc3ccccc3C)=C(C)Nc3ncnn32)ccc1OCC(N)=O (configuration not stated)	inactive
COc1ccc(C2(CNC(=O)c3cccc([N+](=O)[O-])c3)CCOCC2)cc1OC	inactive
S=C(NCCc1c[nH]c2ccccc12)NC1CCCC1	inactive
CCOc1ccccc1NC(=O)C1CCN(S(=O)(=O)c2ccc3c(c2)CC(C)N3C(C)=O)CC1 (configuration not stated)	inconclusive: 22.4 µM [inhibitor, single point]
CCOc1ccc(NCc2cc3c(C(C)(C)C)nn(-c4ccccc4)c3[nH]c2=O)cc1	inconclusive: 22.4 µM [inhibitor, partial curve, poor fit]

Compound	Potency
CCOC(=O)c1ccccc1NC(=O)Cn1c(=O)n(-c2cccc(C)c2)c(=O)c2c1c1cc(C)ccc1n2C	inconclusive: 35.5 µM [inhibitor, single point]
CCOc1ccc(Cn2c(CNS(=O)(=O)c3ccc(Cl)s3)nc3cccnc32)cc1	inconclusive: 11.2 µM [inhibitor, partial curve, poor fit]
CCOCCCN(C(=O)c1ccco1)C(C(=O)NC1CCCC1)c1cccc(OC)c1OC (configuration not stated)	inconclusive: 22.4 µM [inhibitor, single point]
Cc1ccc(S(=O)(=O)N2CCN(C(=O)CCCOc3ccc(Cl)cc3C)CC2)cc1	inconclusive: 35.5 µM [inhibitor, single point]
CCc1ccc(NC(=O)CCn2nc(C)c(S(=O)(=O)N3CCCCC3)c2C)cc1	inconclusive: 17.8 µM [inhibitor, single point]
COc1ccc(Cl)cc1C1=NOC2(CCC2)C(=O)N1Cc1cccc(C#N)c1	inconclusive: 25.1 µM [inhibitor, partial curve, poor fit]
O=C(N/N=C/c1ccccn1)c1cccs1	inconclusive: 35.5 µM [inhibitor, single point]
O=C(CSc1n[nH]c(-c2ccccc2)n1)Nc1ccc(F)cc1F	inconclusive: 35.5 µM [inhibitor, single point]
O=C(NCc1ccco1)C12CN(Cc3ccccc3)CC1C(c1cccc([N+](=O)[O-])c1)=NO2 (configuration not stated)	inconclusive: 3.55 µM [inhibitor, single point]
CC(=O)c1cccc(NC(=O)CN2CCc3cc4c(cc3C2C)OCCCO4)c1 (configuration not stated)	inconclusive: 14.1 µM [inhibitor, partial curve, poor fit]
O=C(Cn1c(=O)nc(-c2ccccc2)c2ccccc21)NCc1ccc(Cl)cc1	inactive
CCn1c2ccccc2c2cc(NC(=O)COC(=O)Cc3cn4ccsc4n3)ccc21	inconclusive: 5.62 µM [inhibitor, single point]
Cc1ccccc1CN1[C@@H](Cc2ccccc2)COCCS1(=O)=O	inconclusive: 3.55 µM [inhibitor, partial curve, poor fit]
N#C/C(=C\c1cn(Cc2ccc(F)cc2)c2ccccc12)C(=O)NCc1ccco1	inconclusive: 25.1 µM [inhibitor, single point]
COc1ccc(CCNC(=O)CSCc2ccc(Cl)cc2)cc1OC	inconclusive: 7.08 µM [inhibitor, partial curve, poor fit]
COc1ccc(C(=O)NC(=O)CSc2nc3nc(C)cc(C)n3n2)cc1	inactive
O=C(CSc1nncn2c1cc1sccc12)Nc1ccc(Br)cc1F	inconclusive: 35.5 µM [inhibitor, single point]
Cc1cc(C)cc(NC(=O)C(=O)NCC(c2cccnc2)N2CCc3ccccc3C2)c1 (configuration not stated)	inconclusive: 7.94 µM [inhibitor, partial curve]
CC1CCC/C(=N\NC(=O)COc2ccc(Cl)cc2Cl)C1 (configuration not stated)	inconclusive: 5.62 µM [inhibitor, single point]
CC(C)(C)c1ccc(C(=O)N2CCC2(C)C(=O)Nc2cccc3ncccc23)cc1 (configuration not stated)	inactive
CCC(C)NS(=O)(=O)c1ccc(S(=O)(=O)N(CCc2ccc(OC)c(OC)c2)Cc2cccs2)cc1 (configuration not stated)	inconclusive: 7.08 µM [inhibitor, partial curve]
